Source: the supplement of paper PMC9446081
Hit rate of the full screen: of about 39,000 compounds, about 220 (0.56%) showed activity. This is one part of the list.

What follows are compounds tested on Escherichia coli K-12 BW25113 (assay: relative growth (OD600 normalised to plate interquartile mean) (fraction); higher = less growth inhibition, active = 0.2 or less). Conditions: 50 µM; LB; incubation time: overnight (16-24 h).
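Also: static incubation at 37 °C against the wild-type strain, values averaged over two biological replicates.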

Compound	relative growth
O=C(CS)NCCCCCNC(=O)[C@H]1C[C@H]2C(=O)NCC(=O)N2[C@H]1c1cccc(OCCO)c1	inactive: 0.929
C[C@H](CO)N1C[C@H](C)[C@@H](CN(C)Cc2ccc(C(=O)O)cc2)Oc2c(NC(=O)Nc3cccc4ccccc34)cccc2C1=O	inactive: 0.77
CN(C)c1ccnc(CNS(C)(=O)=O)n1	inactive: 1.06
C[C@H]1CN([C@@H](C)CO)C(=O)c2cc(NC(=O)CCC(F)(F)F)ccc2O[C@H]1CN(C)Cc1ccc(Oc2ccccc2)cc1	inactive: 0.998
Cc1ccc(S(=O)(=O)Nc2ccc3c(c2)C(=O)N([C@@H](C)CO)C[C@H](C)[C@@H](CN(C)S(C)(=O)=O)OCCCC[C@@H](C)O3)cc1	inactive: 1.02
CCCN(C)C[C@H]1OCCCC[C@@H](C)Oc2ccc(NS(C)(=O)=O)cc2C(=O)N([C@H](C)CO)C[C@@H]1C	inactive: 1.01
Cc1noc(C)c1NC(=O)Nc1ccc2c(c1)C(=O)N([C@H](C)CO)C[C@@H](C)[C@@H](CN(C)Cc1ccc(C(=O)Nc3ccccc3N)cc1)O2	inactive: 0.991
C[C@H]1CN([C@@H](C)CO)C(=O)c2cc(NC(=O)Nc3ccc(C(F)(F)F)cc3)ccc2O[C@H]1CN(C)C(=O)Nc1ccc2c(c1)OCO2	inactive: 1.04
CCn1c(=S)[nH]c2ccccc21	inactive: 0.895
CC(=O)N1CCCC(=O)CC1	inactive: 1.02
O=C(N[C@H](c1ccc(Cl)cc1)c1cnccn1)C1CCN(Cc2ccc(Oc3ccccc3)cc2)CC1	inactive: 1.02
COc1ccc2c3c([nH]c2c1)[C@@H](CO)N(C[C@]13CN(Cc2ccccc2F)C1)S(=O)(=O)c1cn(cn1)C	inactive: 0.993
C[C@H]1CN([C@@H](C)CO)C(=O)Cc2cc(NC(=O)Nc3cccc4ccccc34)ccc2O[C@H]1CN(C)Cc1ccncc1	inactive: 1.02
O=C(N[C@@H]1CC[C@@H](CC(=O)N2CCOCC2)O[C@@H]1CO)c1ccccn1	inactive: 0.975
C[C@@H]1CC[C@@]2(OC1)O[C@H]1C[C@H]3[C@H]4C[C@@H](O)[C@H]5C[C@@H](O[C@@H]6O[C@H](CO)[C@H](O[C@@H]7O[C@H](CO)[C@@H](O)[C@H](O[C@@H]8OC[C@@H](O)[C@H](O)[C@H]8O)[C@H]7O[C@@H]7O[C@H](CO)[C@@H](O[C@@H]8O[C@H](CO)[C@@H](O)[C@H](O)[C@H]8O)[C@H](O)[C@H]7O)[C@H](O)[C@H]6O)CC[C@]5(C)[C@@H]4CC[C@]3(C)[C@H]1[C@@H]2C	inactive: 0.975
C[C@@H]1CN([C@@H](C)CO)S(=O)(=O)c2ccc(Br)cc2O[C@@H]1CN(C)C(=O)c1cnccn1	inactive: 1
C[C@@H]1CCCCO[C@@H](CN(C)Cc2ccc(C(F)(F)F)cc2)[C@@H](C)CN([C@H](C)CO)C(=O)c2cc(N(C)C)ccc2O1	inactive: 1.03
COc1cccc(S(=O)(=O)N[C@@H]2CC[C@@H](CC(=O)NC3CCC3)O[C@H]2CO)c1	inactive: 1.02
C[C@@H]1CCCCO[C@@H](CN(C)S(=O)(=O)c2ccc(Cl)cc2)[C@H](C)CN([C@@H](C)CO)C(=O)c2cc(NC(=O)Nc3ccc(C(F)(F)F)cc3)ccc2O1	inactive: 1.06

Compound	relative growth
O=C1CCCC2C3CCC[N+]4([O-])CCCC(CN12)C34 (configuration not stated)	inactive: 1
C#CCCCCCCCCCCCC(O)CC(O)CO (configuration not stated)	inactive: 0.801
CCCNC(=O)N(C)C[C@H]1Oc2cc(C#Cc3cccc(F)c3)ccc2S(=O)(=O)N([C@@H](C)CO)C[C@H]1C	inactive: 0.992
COc1ccc(-c2cnc3c(c2)C(=O)N([C@H](C)CO)C[C@H](C)[C@@H](CN(C)C(=O)Cc2cccnc2)O3)cc1	inactive: 1.01
COc1ccc(S(=O)(=O)N(C)C[C@H]2Oc3ccc(NC(=O)CCN4CCOCC4)cc3C(=O)N([C@@H](C)CO)C[C@H]2C)cc1	inactive: 1.02
CC1OC(OCC2OC(Oc3c(-c4ccc(O)c(O)c4)oc4cc(O)cc(O)c4c3=O)C(O)C(O)C2O)C(O)C(O)C1O (configuration not stated)	inactive: 1.05
Cc1noc(C)c1NC(=O)Nc1ccc2c(c1)CC(=O)N([C@H](C)CO)C[C@H](C)[C@@H](CN(C)Cc1ccc(-c3ccccc3)cc1)O2	inactive: 0.968
CO[C@@H]1CN(C)C(=O)c2cc(NC(C)=O)ccc2OC[C@@H](C)N(S(=O)(=O)c2cn(C)cn2)C[C@@H]1C	inactive: 1.01
C[C@@H]1CN([C@@H](C)CO)C(=O)c2cc(NS(C)(=O)=O)ccc2O[C@@H](C)CCCCO[C@@H]1CN(C)S(=O)(=O)c1cccs1	inactive: 0.921
C[C@@H]1CN([C@@H](C)CO)C(=O)c2cc(NC(=O)Nc3ccc(C(F)(F)F)cc3)ccc2O[C@@H](C)CCCCO[C@@H]1CN(C)S(=O)(=O)c1ccccc1	inactive: 1.02
C[C@H]1CN([C@@H](C)CO)C(=O)Cc2cc(NC(=O)NC3CCCCC3)ccc2O[C@H]1CN(C)C(=O)Nc1cccc2ccccc12	inactive: 0.925
C[C@@H]1CCCCO[C@H](CN(C)Cc2ccc(C(=O)O)cc2)[C@H](C)CN([C@H](C)CO)C(=O)c2cc(NS(=O)(=O)c3ccccc3)ccc2O1	inactive: 0.991
C[C@@H]1CCCCO[C@H](CN(C)C(=O)Nc2ccc3c(c2)OCO3)[C@@H](C)CN([C@H](C)CO)C(=O)c2cc(NC(=O)CCC(F)(F)F)ccc2O1	inactive: 0.981
C[C@@H]1CN([C@H](C)CO)C(=O)c2cccc(NC(=O)Nc3ccc(C(F)(F)F)cc3)c2O[C@@H]1CN(C)C(=O)Nc1cccc2ccccc12	inactive: 0.884
C[C@@H]1CCCCO[C@@H](CN(C)CC2CC2)[C@H](C)CN([C@@H](C)CO)C(=O)c2cc(NS(=O)(=O)c3ccc(Cl)cc3)ccc2O1	inactive: 0.997
CCC(C)C1OC2(C=CC1C)CC1CC(CC=C(C)C(OC3CC(OC)C(OC4CC(OC)C(NC(C)=O)C(C)O4)C(C)O3)C(C)C=CC=C3COC4C(O)C(C)=CC(C(=O)O1)C34O)O2 (configuration not stated)	inactive: 0.997
NCC[C@@H]1CC[C@@H](NC(=O)c2ccccc2F)[C@H](CO)O1	inactive: 1.03
Cc1ccc(S(=O)(=O)N(C)C[C@@H]2OCCCC[C@@H](C)Oc3ccc(NC(=O)Nc4ccc(F)cc4)cc3C(=O)N([C@H](C)CO)C[C@@H]2C)cc1	inactive: 0.997
C[C@@H]1CN([C@H](C)CO)S(=O)(=O)c2ccc(C#CCN(C)C)cc2O[C@H]1CN(C)S(C)(=O)=O	inactive: 0.982

Compound	relative growth
Cc1noc(C)c1NC(=O)N(C)C[C@@H]1Oc2ccc(NC(=O)CCN3CCOCC3)cc2CC(=O)N([C@@H](C)CO)C[C@H]1C	inactive: 1
CCS(=O)(=O)N1C[C@]2(CN(C2)C(=O)Nc2ccc3c(c2)OCO3)c2c(n(c3cc(ccc23)OC)C)[C@H]1CO	inactive: 0.979
COCC#Cc1cnc2c(c1)C(=O)N([C@@H](C)CO)C[C@H](C)[C@@H](CN(C)C(C)=O)O2	inactive: 0.984
CCCC(=O)Nc1ccc2c(c1)C(=O)N(C)C[C@H](OC)[C@H](C)CN(Cc1ccc(-c3ccccn3)cc1)[C@@H](C)CO2	inactive: 0.997
CCCN(C)C[C@@H]1OCCCC[C@@H](C)Oc2ccc(NC(=O)Nc3cccc4ccccc34)cc2C(=O)N([C@H](C)CO)C[C@@H]1C	inactive: 0.974
C[C@H]1CCCCO[C@H](CN(C)C(=O)Nc2ccc3c(c2)OCO3)[C@@H](C)CN([C@@H](C)CO)C(=O)c2cc(NC(=O)CCC(F)(F)F)ccc2O1	inactive: 0.955
COCC(=O)Nc1ccc2c(c1)C(=O)N(C)C[C@@H](OC)[C@H](C)CN(C(=O)Cc1ccccn1)[C@@H](C)CO2	inactive: 0.986
C[C@@H]1CN([C@H](C)CO)C(=O)c2cc(NC(=O)Cn3cnnn3)ccc2O[C@H]1CN(C)S(=O)(=O)c1ccccc1	inactive: 0.979
O=C(C[C@@H]1CC[C@@H]2[C@H](COC[C@H](O)CN2C(=O)c2ccccn2)O1)NC1CCC1	inactive: 0.991
C[C@@H]1CN([C@@H](C)CO)C(=O)Cc2cc(NC(=O)Nc3cccc4ccccc34)ccc2O[C@@H]1CN(C)Cc1ccc(Oc2ccccc2)cc1	inactive: 1.02
CNC[C@H]1Oc2ccc(NS(=O)(=O)c3cn(C)cn3)cc2C(=O)N([C@@H](C)CO)C[C@H]1C	inactive: 0.991
C[C@@H]1CCCCO[C@@H](CN(C)Cc2ccc3c(c2)OCO3)[C@H](C)CN([C@@H](C)CO)C(=O)c2cc(NC(=O)Nc3ccc(F)cc3)ccc2O1	inactive: 0.993
COc1cc2ccc(=O)oc2c(OC)c1OC	inactive: 1.02
C[C@@H]1CCCCO[C@@H](CN(C)Cc2ccc(Cl)c(Cl)c2)[C@@H](C)CN([C@@H](C)CO)C(=O)c2cc(NC(=O)Nc3cccc4ccccc34)ccc2O1	inactive: 0.964
C[C@H]1CN([C@@H](C)CO)S(=O)(=O)c2ccc(C#CC3(O)CCCC3)cc2O[C@H]1CN(C)C(=O)c1cccnc1	inactive: 0.994
O=C(CS)NCCCCCCNC(=O)[C@@H]1C[C@@H]2C(=O)N[C@@H](Cc3ccccc3)C(=O)N2[C@@H]1c1cccc(OCCO)c1	inactive: 1.01
Cc1noc(C)c1NC(=O)N(C)C[C@H]1OCCCC[C@H](C)Oc2ccc(NS(=O)(=O)c3ccc(Cl)cc3)cc2C(=O)N([C@H](C)CO)C[C@@H]1C	inactive: 1
CN(Cc1ccccc1)C[C@H]1C[C@@H](c2ccc(CO)cc2)O[C@H](c2ccc(NC(=O)CCCCCCC(=O)NO)cc2)O1	inactive: 0.977
CN1C(=O)c2cc(NC(=O)c3cccs3)ccc2OC[C@@H]2O[C@@H](CC(=O)NCC(F)(F)F)CC[C@@H]21	inactive: 0.993
